The values below come from PubChem BioAssay (NCATS).

The nature of test [1]: qHTS Assay for Lipid Storage Modulators (AID 1519). Particulars: Drosophila S3 cells, BODIPY lipid droplet/cell ratio, laser cytometry, cells loaded with oleic acid. In a few lines: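 Cells seeded at 5,000 per well were treated with compounds over a concentration series and loaded with oleic acid (400 uM, as added). Lipid droplet fluorescence (488 nm excitation, 500-530 nm channel) was read by laser-scanning cytometry and normalized to 20 uM Triacsin C.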

Test [2] in a line: qHTS Assay for Modulators of Human Peripheral Myelin Protein 22 (PMP22) Expression/Activity (AID 1967). Particulars: Cell-based PMP22 reporter, dual-color luciferase ratio. In a few lines: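 Mouse MSC80 Schwann cells carrying Pmp22 promoter–green click beetle luciferase plus EF-alpha–red luciferase control, dosed 24 h at 37 °C. Dual-filter luminescence, overlap-corrected; %Activity from green/red ratio normalised to untreated cells, concentration-response curves fitted.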

Test [3] is described as follows: qHTS Assay for Inhibitors of PDE-IV (AID 607).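 Further: parental cells stimulated with forskolin 10 µM plus RO 20-1724 100 µM.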 Particulars: HEK293 ACTOne CNG channel cells, membrane potential fluorescence; measured here: parental cell counter-screen. In a few lines: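 ACTOne HEK293 cells carry a modified cAMP-gated CNG channel and express endogenous PDE4; plated 1000 cells/well, compounds up to 22.9 uM final. Membrane-potential dye fluorescence (ex 535/em 590) was read; parental cells received 10 uM forskolin + 100 uM RO 20-1724.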

Test [4] in a line: qHTS Validation Assay to Find Inhibitors of Chronic Active B-Cell Receptor Signaling (AID 485345). Particulars: ABC-DLBCL cells, chronic BCR signaling reporter; measured here: CBR control luciferase (viability counter). An outline of the steps: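 TMD8 ABC-DLBCL cells with dox-inducible green luciferase–IκBα fusion and red native luciferase; compounds 46 uM–3 nM, 4 h at 37C with doxycycline in 0.5% FBS IMDM. Green/red ratio normalized to basal and 10 uM MG-132.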

Test [5] can be described thus: A High-Content qHTS Against Drug Library for the Identification of Small Molecules that Inhibit DYT1 Early Onset Primary Dystonia-Associated Cell Pathology (AID 1645839). Particulars: HEK293 Flp-In EGFP-delE TorsinA, punctate imaging, 48 h; measured here: cell count cytotoxicity. An outline of the steps:
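Readout: %pathology, the punctate EGFP-TorsinA distribution from imaging, as the primary channel and cell count as the toxicity counterscreen. HEK293 Flp-In cells expressing delE TorsinA were induced with tetracycline and treated with compound for 48 h.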

[6] abbreviates: measured here: cell count channel max response.
Where [7] appears, read: measured here: lipid channel max response.
Where [8] appears, read: measured here: red reporter channel AC50, EF-alpha promoter control reporter in MSC80 mouse Schwann cells.

The other results are listed elsewhere or left out. These are further read-outs of the screen, such as a control signal, another cell line or another target. No call is given for them. The list favours compounds with an active or inconclusive main result. For some of these results: The note in brackets gives the kind of curve behind each potency; many fits are weak.
Tags describe the fitted curve by direction and shape.

For the compound `NCC(O)c1ccc(O)c(O)c1` (stereo not given), the values for the max response in test [1] (setting [6]) and in test [1] (setting [7]) were 50.9% and 50.3%, respectively. For the same compound, the concentration at half-maximal activity (AC50) in test [2] (measured here: green reporter channel AC50, mouse Pmp22 promoter in mouse Schwann cells) is 84.9 µM [falling, single point]; in test [2] (setting [8]), 84.9 µM [falling, single point].

Regarding `O=C(O)c1cc([N+](=O)[O-])ccc1NCCCc1ccccc1`, the half-maximal activity concentration (AC50) is 15.8 µM [rising, partial curve] in test [3]; 1.35 µM [falling, full curve] in test [2] (setting [8]); 1.3 µM [falling, full curve] in test [4]. For the same compound, the max response worked out at 59.2% in test [1] (setting [6]) and 83.5% in test [1] (setting [7]).

On to `CO[C@@H]1[C@@H](O[C@@H]2O[C@H](C)[C@@H](O[C@H]3C[C@@](C)(O)[C@@H](O)[C@H](C)O3)[C@H](N(C)C)[C@H]2O)[C@@H](CC=O)C[C@@H](C)[C@@H](O[C@@H]2CC[C@H](N(C)C)[C@@H](C)O2)/C=C/C=C/C[C@@H](C)OC(=O)C[C@H]1OC(C)=O`, for which the AC50 in test [5] is 7.08 µM [falling, full curve, poor fit].
